The target in this assay is CB1 receptor (Rattus norvegicus, UniProt P20272).

Here are results for two compounds from patent publication US20040127518A1, “Modulation of anxiety through blockade of anandamide hydrolysis” (priority 2002, published 2004).

A value given as a limit tells only on which side of the number the result lay.

Sequence of UniProt P20272 (P20272 whole entry): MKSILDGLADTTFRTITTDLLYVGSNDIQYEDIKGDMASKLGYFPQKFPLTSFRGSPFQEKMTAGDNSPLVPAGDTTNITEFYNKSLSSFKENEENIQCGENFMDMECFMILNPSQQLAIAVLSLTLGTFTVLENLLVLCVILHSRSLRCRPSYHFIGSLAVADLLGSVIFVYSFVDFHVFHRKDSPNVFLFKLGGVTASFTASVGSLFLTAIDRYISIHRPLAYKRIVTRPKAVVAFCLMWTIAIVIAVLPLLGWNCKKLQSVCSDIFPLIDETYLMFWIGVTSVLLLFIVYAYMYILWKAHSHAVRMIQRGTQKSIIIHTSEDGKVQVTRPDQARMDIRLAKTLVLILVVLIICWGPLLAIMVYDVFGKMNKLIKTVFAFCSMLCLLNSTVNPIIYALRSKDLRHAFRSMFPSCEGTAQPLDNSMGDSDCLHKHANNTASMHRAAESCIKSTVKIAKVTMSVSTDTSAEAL

With `CCCCNC(=O)Oc1ccc(OCc2ccccc2)cc1` [UCM532, n-Butylcarbamic acid 4-benzyloxyphenyl ester], the “effect on binding of a high-affinity ligand to CB1 (in words)” value was “no effect”. Besides, the “CB1: maximal concentration of FAAH inhibitor tested” value (Table 2) is >300 µM.

Take `NC(=O)c1cccc(-c2cccc(OC(=O)NC3CCCCC3)c2)c1` [UCM597, cyclohexylcarbamic acid 3′-carbamoylbiphenyl-3-yl ester]: the “effect on binding of a high-affinity ligand to CB1 (in words)” value is given as “no effect”.
